Among all 390,000 compounds or so, about 4,000 (1%) were called active. This list was built around the results that the source calls inconclusive (neither active nor inactive); the mix of calls is not that of the screen. Calls come from the whole dose curve; as a rule, active = well fitted inhibition curve with a large enough effect; inconclusive = small, poorly fitted or top-dose-only effect; inactive = no such curve, though single readings can be large or run the other way. Where the call is inconclusive, the potency comes from a doubtful curve fit.
Each compound was assayed against Thioredoxin reductase 1, cytoplasmic (Rattus norvegicus) (UniProt O89049) (assay: qHTS Assay for Inhibitors of Mammalian Selenoprotein Thioredoxin Reductase 1 (TrxR1): qHTS). Conditions: recombinant rTrxR1, NADPH fluorescence consumption, selenite substrate; series mostly up to 114 µM.
UniProt O89049, sequence (O89049 whole entry, looked up): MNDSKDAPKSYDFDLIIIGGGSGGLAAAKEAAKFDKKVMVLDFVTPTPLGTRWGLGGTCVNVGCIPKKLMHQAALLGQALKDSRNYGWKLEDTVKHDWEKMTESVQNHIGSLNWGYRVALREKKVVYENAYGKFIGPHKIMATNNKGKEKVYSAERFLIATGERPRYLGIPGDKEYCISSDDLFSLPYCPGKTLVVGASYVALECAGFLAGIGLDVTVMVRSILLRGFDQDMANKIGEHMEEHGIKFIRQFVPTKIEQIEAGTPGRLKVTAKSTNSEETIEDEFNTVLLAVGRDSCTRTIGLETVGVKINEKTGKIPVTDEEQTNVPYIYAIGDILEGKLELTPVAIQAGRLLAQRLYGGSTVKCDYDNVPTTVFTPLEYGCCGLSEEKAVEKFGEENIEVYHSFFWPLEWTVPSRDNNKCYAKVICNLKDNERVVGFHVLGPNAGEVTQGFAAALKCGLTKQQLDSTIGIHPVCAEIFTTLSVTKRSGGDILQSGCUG
In short: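 Rat TrxR1 (90 nM in the dispensed reagent) was pre-reduced with 400 uM NADPH for 5 min at room temperature, then incubated with compound for 15 min. After 400 uM selenite was added, NADPH fluorescence (Ex 340/Em 450 nm) was followed for 8 min.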
Note: nearly all actives have a fitted effect of over 65% in size.
Potency is the fitted concentration of half-maximal effect; tags give direction and shape of the fitted curve.

| SMILES | Potency |
| --- | --- |
| O=C(NNC(=S)Nc1cccc(C(F)(F)F)c1)c1ccc(Cl)cc1Cl | inconclusive: 56.2 µM [inhibitor, partial curve] |
| CCCCN(CCCC)c1ccc(C=Nc2ccc(/C=C/c3ccnc4ccccc34)cc2)cc1C | inactive |
| Cc1cc2c(cc3c(SCc4ccc(Cl)cc4)nncn32)o1 | inconclusive: 89.1 µM [inhibitor, single point] |
| CCOc1cc(C2c3c(oc4ccccc4c3=O)C(=O)N2Cc2ccc(OC)cc2)ccc1O (stereo unspecified) | inconclusive: 89.1 µM [inhibitor, single point] |
| COc1ccc(-n2cnc3cc(C(=O)NC4CCCCCC4)ccc32)cc1 | inactive |
| CCOc1cc(C2c3c(n[nH]c3C)C(=O)N2c2ccc(C)cc2)ccc1O (stereo unspecified) | inconclusive: 28.2 µM [inhibitor, partial curve] |
| CCOc1ccc(/C=C2/SC(=O)NC2=S)cc1 | inconclusive: 8.91 µM [inhibitor, partial curve, poor fit] |
| Cc1cc(C)n2nc(SCc3cc(=O)oc4ccc5ccccc5c34)nc2n1 | inactive |
| Cc1nn(-c2ccccc2)c(Cl)c1CN(C(=O)CCl)c1cccc2ccccc12 | inconclusive: 35.5 µM [inhibitor, full curve] |
| O=C(CCNc1ccc(F)c(Cl)c1)c1ccco1 | inconclusive: 7.94 µM [inhibitor, full curve] |
| COC(=O)c1sc2nc(-c3ccco3)ccc2c1N | inconclusive: 44.7 µM [inhibitor, partial curve, poor fit] |
| CC(C)OP(=O)(OC(C)C)C(Nc1ccc(C(=O)O)cc1)c1ccccc1 (stereo unspecified) | inconclusive: 79.4 µM [inhibitor, partial curve, poor fit] |
| CCc1ccc(CCC(=O)Nc2nc(CC(C)=O)ns2)o1 | inconclusive: 56.2 µM [inhibitor, partial curve] |
| Cc1sc2nnn(CC(=O)N3CCN(C(=O)c4ccco4)CC3)c(=O)c2c1C | inconclusive: 12.6 µM [inhibitor, full curve, poor fit] |
| NC[C@@H]1O[C@H](c2ccccc2)Cc2c1ccc(O)c2O | inconclusive: 11.2 µM [inhibitor, partial curve] |
| CN(C)S(=O)(=O)c1ccc(=S)[nH]c1 | inconclusive: 3.55 µM [inhibitor, partial curve] |
| COC(CNC(=O)CSCc1nc(-c2ccc(SC)cc2)oc1C)OC | inconclusive: 79.4 µM [inhibitor, single point] |
| O=c1oc2ccccc2c(Cl)c1CN1CCCCC1 | active: 3.16 µM |
| O=C(CC1C(=O)NCCN1Cc1cccc(F)c1)NC1CCC1 (stereo unspecified) | inconclusive: 56.2 µM [inhibitor, partial curve, poor fit] |
| COC(=O)C(NC(C)=O)(Nc1nc(C)cs1)C(F)(F)F (stereo unspecified) | inconclusive: 79.4 µM [inhibitor, partial curve, poor fit] |
| CCN1CCN(Cc2c(O)c(Cl)cc3c(C)cc(=O)oc23)CC1 | inconclusive: 39.8 µM [inhibitor, full curve, poor fit] |
| C=CC(=O)N1C/C=C\C(c2ccc(OC)cc2)N(Cc2ccc(F)cc2)C(=O)C1 (stereo unspecified) | inconclusive: 31.6 µM [inhibitor, single point] |

| SMILES | Potency |
| --- | --- |
| C[n+]1ccccc1/C=C/c1cc(Br)ccc1O | inconclusive: 56.2 µM [inhibitor, partial curve, poor fit] |
| O=C(NC1CCCC1)c1ccc(COc2ccccc2Br)o1 | inconclusive: 31.6 µM [inhibitor, partial curve] |
| Cc1ccc2nc3c(cc(C(=O)NC4CCCCC4)c(=N)n3C3CCCCC3)c(=O)n2c1 | inconclusive: 89.1 µM [inhibitor, single point] |
| CCN(CC)S(=O)(=O)c1ccc(C(=O)N2CCN(C3=NS(=O)(=O)c4ccccc43)CC2)cc1 | inconclusive: 89.1 µM [inhibitor, partial curve, poor fit] |
| CC(=O)Nc1ccc(S(=O)(=O)NC(CC(=O)N(C)Cc2ccccc2)C(C)C)cc1 (stereo unspecified) | inactive |
| CCOC(=O)C1CCCN(C(=O)c2ccc3c(c2)N(Cc2ccccc2)C(=O)c2ccccc2S3=O)C1 (stereo unspecified) | inactive |
| COC(=O)c1ccccc1NC(=O)/C=C/c1ccco1 | inconclusive: 15.8 µM [inhibitor, single point] |
| Cc1ccccc1OCC(=O)N/N=C/c1ccc(N2CCOCC2)o1 | inconclusive: 22.4 µM [inhibitor, full curve, poor fit] |
| N#C/C(=C/c1ccccc1[N+](=O)[O-])C(=O)NCc1ccco1 | inconclusive: 70.8 µM [inhibitor, partial curve] |
| Cc1ccc(S(=O)(=O)NCc2ccc(N3CCN(C(=O)OC(C)(C)C)CC3)cc2)cc1 | inactive |
| O=C(NCC#CCOCc1ccccc1)c1ccccc1 | inconclusive: 17.8 µM [inhibitor, full curve, poor fit] |
| COc1nnc(-c2ccc(N3CCOCC3)c(NC(=O)c3ccco3)c2)c2ccccc12 | inconclusive: 50.1 µM [inhibitor, partial curve] |
| CCCCc1nnc(NC(=O)Cc2ccc(S(=O)(=O)N3CCOCC3)s2)s1 | inconclusive: 79.4 µM [inhibitor, partial curve, poor fit] |
| Oc1ccccc1/C=N/n1c(COc2ccccc2)n[nH]c1=S | inconclusive: 17.8 µM [inhibitor, partial curve, poor fit] |
| Cc1nnc(NC(=O)CSc2nc3[nH]ncc3c(=O)[nH]2)s1 | inconclusive: 44.7 µM [inhibitor, partial curve, poor fit] |
| CC(C)Cc1csc(NC(=O)C(C)C)c1C(=O)O | inconclusive: 89.1 µM [inhibitor, partial curve, poor fit] |
| O=S(c1ccccc1O)S(=O)c1ccccc1O (stereo unspecified) | inactive |
| Cc1cccc(NC(=S)NC(=O)/C=C/c2ccco2)c1 | active: 22.4 µM |
| CC(=O)Nc1ccc(-c2csc(N/N=C\c3ccncc3)n2)cc1 | inconclusive: 11.2 µM [inhibitor, partial curve] |
| CCOc1ccc(C(=O)CC(Sc2ccc(C)cc2)C(=O)O)cc1 (stereo unspecified) | inactive |
| O=c1c(CN2CCN(Cc3ccccc3)CC2)coc2ccc(Cl)cc12 | active: 22.4 µM |
| CC1=NN(c2ccc(C)cc2)C(=O)/C1=C/c1ccc(-c2cc([N+](=O)[O-])ccc2O)o1 | inactive |

| SMILES | Potency |
| --- | --- |
| CC(=O)c1cccc(S(=O)(=O)N2CCCC(c3nc(-c4ccc(C)o4)no3)C2)c1 (stereo unspecified) | inconclusive: 12.6 µM [inhibitor, partial curve, poor fit] |
| Brc1ccc(C=C2C=c3ccccc3=C2)cc1 | active: 35.5 µM |
| C=CCn1c(SCc2ccccc2)nc2scc(-c3ccc(C)o3)c2c1=O | inconclusive: 2.24 µM [inhibitor, full curve, poor fit] |
| NS(=O)(=O)c1ccc(NC(=S)NCc2ccc(F)cc2)cc1 | inconclusive: 56.2 µM [inhibitor, single point] |
| CC(C)=CCC/C(C)=C/CC/C(C)=C/CC/C(C)=C/CC1=C(C)C(=O)c2ccccc2C1=O | inconclusive: 17.8 µM [inhibitor, full curve] |
| CCOc1ccc(C2C(C(=O)c3ccco3)=C(O)C(=O)N2CCCn2ccnc2)cc1OC (stereo unspecified) | inconclusive: 50.1 µM [inhibitor, partial curve, poor fit] |
| COC(=O)Cc1c(C)c2ccc(OCC(=O)N(C)C3CCS(=O)(=O)C3)cc2oc1=O (stereo unspecified) | inconclusive: 12.6 µM [inhibitor, partial curve, poor fit] |
| CCOc1ccc(C(=O)NC(=S)Nc2ccc(NC(=O)C(C)C)cc2)cc1[N+](=O)[O-] | inconclusive: 50.1 µM [inhibitor, partial curve] |
| CCOC(=O)C1=C(C)Nc2nc(=S)[nH]n2C1c1ccc(Cl)cc1 (stereo unspecified) | inconclusive: 20 µM [inhibitor, single point] |
| COc1cccc(NC(=O)CN(c2ccc([N+](=O)[O-])cc2)S(=O)(=O)c2ccccc2)c1 | inactive |
| Cc1csc(NC(=O)C2C3C=CC(O3)C2C(=O)O)n1 (stereo unspecified) | inconclusive: 14.1 µM [inhibitor, full curve, poor fit] |
| CCC(COC)Oc1cc(NCc2ccccc2)c2ncn(C(C)C)c2c1 (stereo unspecified) | inconclusive: 50.1 µM [inhibitor, partial curve] |
| O=C(c1ccncc1)N1CCCC(N2CCN(c3ccc(F)cc3)CC2)C1 (stereo unspecified) | inactive |
| COc1ccc(CNC(=O)CSc2nc3nc(C)cc(C)n3n2)cc1 | inconclusive: 89.1 µM [inhibitor, partial curve, poor fit] |
| Cc1cc2ccccc2c(=O)n1CC(=O)NCc1ccco1 | inconclusive: 25.1 µM [inhibitor, single point] |
| COc1ccc(NC(=O)c2ccc([N+](=O)[O-])o2)cc1 | inconclusive: 39.8 µM [inhibitor, partial curve] |
| O=C1OC(c2ccccc2)=C/C1=C/N1CCOCC1 | inconclusive: 35.5 µM [inhibitor, single point] |
| CCOc1ccc(CN(C)C(=O)CCl)cc1 | active: 17.8 µM |
| C#Cc1ccc(CN2CCC(C(=O)Nc3ccc(Oc4ccccc4)nc3)CC2)cc1 | inactive |
| Cc1ccc(C(=O)C2CCN(C(=O)c3ccc(C)cc3)CC2)cc1 | inactive |
| C=C1c2cccc(O)c2C(=O)C2C(=O)[C@]3(O)C(=O)C(C(N)=O)C(=O)[C@@H](N(C)C)[C@@H]3[C@@H](O)[C@H]12 (stereo partly specified) | inconclusive: 50.1 µM [inhibitor, partial curve] |
| O=C(NCCCN1CCCCCC1)c1ccc2c(c1)NC(=O)C(N1CCOCC1)S2 (stereo unspecified) | inconclusive: 22.4 µM [inhibitor, full curve] |

— PubChem BioAssay AID588453 (National Center for Advancing Translational Sciences (NCATS), 2011)
